# According to the supplement of paper PMC8728848:
# The list shows a part of the results.
# Experiments:
# Assay in all cases: glycan array binding signal (z-score within array); higher = stronger binding
# Conditions in all cases: glycan notation: IUPAC condensed, linker removed
# [1] = molecular target: Neu5Ac(a2-3)Gal(b1-3)]Neu5Ac(a2-3)Gal(b1-4)]GlcNAc
# Outline: (§1)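 Glycan array data came from 3228 arrays in the Consortium for Functional Glycomics database, and only arrays with an available protein sequence were kept. Glycan names were put into IUPAC-condensed notation, and columns mapping to the same glycan were averaged. The binding signal is a within-array Z-score, averaged across arrays of one protein sequence run at different concentrations or buffers and across linkers. A negative Z-score can be read as non-binding.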
# [2] = molecular target: Neu5Ac(a2-3)Gal(b1-4)Glc
# Outline: as §1
# [3] = molecular target: Neu5Ac(a2-3)Gal(b1-4)GlcNAc
# Outline: as §1
# [4] = molecular target: Neu5Ac(a2-3)Gal(b1-4)GlcNAc(b1-2)Man
# Outline: as §1
# [5] = molecular target: Neu5Ac(a2-3)Gal(b1-4)GlcNAc(b1-2)Man(a1-3)[GlcNAc(b1-4)][Neu5Ac(a2-3)Gal(b1-4)GlcNAc(b1-2)Man(a1-6)]Man(b1-4)GlcNAc(b1-4)GlcNAc
# Outline: as §1
# [6] = molecular target: Neu5Ac(a2-3)Gal(b1-4)GlcNAc(b1-2)Man(a1-3)[Neu5Ac(a2-3)Gal(b1-4)GlcNAc(b1-2)Man(a1-6)]Man(b1-4)GlcNAc(b1-4)GlcNAc
# Outline: as §1
# [7] = molecular target: Neu5Ac(a2-3)Gal(b1-4)GlcNAc(b1-2)Man(a1-3)[Neu5Ac(a2-3)Gal(b1-4)GlcNAc(b1-2)Man(a1-6)]Man(b1-4)GlcNAc(b1-4)[Fuc(a1-6)]GlcNAc
# Outline: as §1
# [8] = molecular target: Neu5Ac(a2-3)Gal(b1-4)GlcNAc(b1-2)Man(a1-3)[Neu5Ac(a2-6)Gal(b1-4)GlcNAc(b1-2)Man(a1-6)]Man(b1-4)GlcNAc(b1-4)GlcNAc
# Outline: as §1
# [9] = molecular target: Neu5Ac(a2-3)Gal(b1-4)GlcNAc(b1-2)[Neu5Ac(a2-3)Gal(b1-4)GlcNAc(b1-4)]Man(a1-3)[GlcNAc(b1-4)][Neu5Ac(a2-3)Gal(b1-4)GlcNAc(b1-2)[Neu5Ac(a2-3)Gal(b1-4)GlcNAc(b1-6)]Man(a1-6)]Man(b1-4)GlcNAc(b1-4)GlcNAc
# Outline: as §1
# [10] = molecular target: Neu5Ac(a2-3)Gal(b1-4)GlcNAc(b1-2)[Neu5Ac(a2-3)Gal(b1-4)GlcNAc(b1-4)]Man(a1-3)[GlcNAc(b1-4)][Neu5Ac(a2-3)Gal(b1-4)GlcNAc(b1-4)Man(a1-6)]Man(b1-4)GlcNAc(b1-4)GlcNAc
# Outline: as §1
# [11] = molecular target: Neu5Ac(a2-3)Gal(b1-4)GlcNAc(b1-2)[Neu5Ac(a2-3)Gal(b1-4)GlcNAc(b1-6)]Man(a1-6)[Neu5Ac(a2-3)Gal(b1-4)GlcNAc(b1-2)Man(a1-3)][GlcNAc(b1-4)]Man(b1-4)GlcNAc(b1-4)GlcNAc
# Outline: as §1
# [12] = molecular target: Neu5Ac(a2-3)Gal(b1-4)GlcNAc(b1-3)Gal
# Outline: as §1
# [13] = molecular target: Neu5Ac(a2-3)Gal(b1-4)GlcNAc(b1-3)Gal(b1-3)GlcNAc
# Outline: as §1
# [14] = molecular target: Neu5Ac(a2-3)Gal(b1-4)GlcNAc(b1-3)Gal(b1-4)GlcNAc
# Outline: as §1
# [15] = molecular target: Neu5Ac(a2-3)Gal(b1-4)GlcNAc(b1-3)Gal(b1-4)GlcNAc(b1-2)Man(a1-3)[Neu5Ac(a2-3)Gal(b1-4)GlcNAc(b1-3)Gal(b1-4)GlcNAc(b1-2)Man(a1-6)]Man(b1-4)GlcNAc(b1-4)GlcNAc
# Outline: as §1
# [16] = molecular target: Neu5Ac(a2-3)Gal(b1-4)GlcNAc(b1-3)Gal(b1-4)GlcNAc(b1-3)Gal(b1-4)GlcNAc
# Outline: as §1
# [17] = molecular target: Neu5Ac(a2-3)Gal(b1-4)GlcNAc(b1-3)Gal(b1-4)GlcNAc(b1-3)Gal(b1-4)GlcNAc(b1-2)Man(a1-3)[Neu5Ac(a2-3)Gal(b1-4)GlcNAc(b1-3)Gal(b1-4)GlcNAc(b1-3)Gal(b1-4)GlcNAc(b1-2)Man(a1-6)]GalNAc
# Outline: as §1
# [18] = molecular target: Neu5Ac(a2-3)Gal(b1-4)GlcNAc(b1-3)Gal(b1-4)GlcNAc(b1-3)GalNAc
# Outline: as §1
# [19] = molecular target: Neu5Ac(a2-3)Gal(b1-4)GlcNAc(b1-3)Gal(b1-4)GlcNAc(b1-3)[Neu5Ac(a2-3)Gal(b1-4)GlcNAc(b1-3)Gal(b1-4)GlcNAc(b1-6)]GalNAc
# Outline: as §1
# [20] = molecular target: Neu5Ac(a2-3)Gal(b1-4)GlcNAc(b1-3)Gal(b1-4)GlcNAc(b1-6)[Gal(b1-3)]GalNAc
# Outline: as §1
# [21] = molecular target: Neu5Ac(a2-3)Gal(b1-4)GlcNAc(b1-3)Gal(b1-4)[Fuc(a1-3)]GlcNAc
# Outline: as §1
# [22] = molecular target: Neu5Ac(a2-3)Gal(b1-4)GlcNAc(b1-3)GalNAc
# Outline: as §1
# [23] = molecular target: Neu5Ac(a2-3)Gal(b1-4)GlcNAc(b1-3)[Neu5Ac(a2-3)Gal(b1-4)GlcNAc(b1-6)]GalNAc
# Outline: as §1
# [24] = molecular target: Neu5Ac(a2-3)Gal(b1-4)GlcNAc(b1-6)GalNAc
# Outline: as §1
# [25] = molecular target: Neu5Ac(a2-3)Gal(b1-4)GlcNAc(b1-6)[Gal(b1-3)]GalNAc
# Outline: as §1
# [26] = molecular target: Neu5Ac(a2-3)Gal(b1-4)GlcNAc(b1-6)[Neu5Ac(a2-3)Gal(b1-3)]GalNAc
# Outline: as §1
# [27] = molecular target: Neu5Ac(a2-3)Gal(b1-4)GlcNAc6S
# Outline: as §1
# [28] = molecular target: Neu5Ac(a2-3)Gal(b1-4)[Fuc(a1-3)]GlcNAc
# Outline: as §1
# [29] = molecular target: Neu5Ac(a2-3)Gal(b1-4)[Fuc(a1-3)]GlcNAc(b1-2)Man
# Outline: as §1
# [30] = molecular target: Neu5Ac(a2-3)Gal(b1-4)[Fuc(a1-3)]GlcNAc(b1-3)Gal
# Outline: as §1
# [31] = molecular target: Neu5Ac(a2-3)Gal(b1-4)[Fuc(a1-3)]GlcNAc(b1-3)Gal(b1-4)GlcNAc
# Outline: as §1
# [32] = molecular target: Neu5Ac(a2-3)Gal(b1-4)[Fuc(a1-3)]GlcNAc(b1-3)Gal(b1-4)[Fuc(a1-3)]GlcNAc(b1-3)Gal(b1-4)[Fuc(a1-3)]GlcNAc
# Outline: as §1
# [33] = molecular target: Neu5Ac(a2-3)Gal(b1-4)[Fuc(a1-3)]GlcNAc(b1-3)GalNAc
# Outline: as §1
# [34] = molecular target: Neu5Ac(a2-3)Gal(b1-4)[Fuc(a1-3)]GlcNAc(b1-6)[Gal(b1-3)]GalNAc
# Outline: as §1
# [35] = molecular target: Neu5Ac(a2-3)Gal(b1-4)[Fuc(a1-3)]GlcNAc(b1-6)[Neu5Ac(a2-3)Gal(b1-3)]GalNAc
# Outline: as §1
# [36] = molecular target: Neu5Ac(a2-3)Gal(b1-4)[Fuc(a1-3)]GlcNAc6S
# Outline: as §1
# [37] = molecular target: Neu5Ac(a2-3)Gal6S(b1-4)GlcNAc
# Outline: as §1
# [38] = molecular target: Neu5Ac(a2-3)Gal6S(b1-4)[Fuc(a1-3)]GlcNAc
# Outline: as §1
binder,measurement,setting,value
BTL (Bryothamnion triquetrum) (protein) ADPICGSSGYSCTTPAILTPKSPGSFPSGYSKVIVTGVGGSYSVYIHRPDGFKVYKASEGGCASFGSYSGGGNSEVGKYGSGGTVVAVACK,glycan array binding signal (z-score),[1],-0.243
same,glycan array binding signal (z-score),[2],-0.124
same,glycan array binding signal (z-score),[3],-0.268
same,glycan array binding signal (z-score),[4],-0.143
same,glycan array binding signal (z-score),[5],-0.237
same,glycan array binding signal (z-score),[6],-0.251
same,glycan array binding signal (z-score),[7],5.15
same,glycan array binding signal (z-score),[8],-0.243
same,glycan array binding signal (z-score),[9],-0.214
same,glycan array binding signal (z-score),[10],-0.251
same,glycan array binding signal (z-score),[11],-0.271
same,glycan array binding signal (z-score),[12],-0.266
same,glycan array binding signal (z-score),[13],-0.25
same,glycan array binding signal (z-score),[14],-0.232
same,glycan array binding signal (z-score),[15],-0.197
same,glycan array binding signal (z-score),[16],-0.312
same,glycan array binding signal (z-score),[17],-0.145
same,glycan array binding signal (z-score),[18],-0.183
same,glycan array binding signal (z-score),[19],-0.207
same,glycan array binding signal (z-score),[20],-0.195
same,glycan array binding signal (z-score),[21],-0.216
same,glycan array binding signal (z-score),[22],-0.235
same,glycan array binding signal (z-score),[23],-0.188
same,glycan array binding signal (z-score),[24],-0.284
same,glycan array binding signal (z-score),[25],-0.212
same,glycan array binding signal (z-score),[26],-0.271
same,glycan array binding signal (z-score),[27],-0.16
same,glycan array binding signal (z-score),[28],-0.275
same,glycan array binding signal (z-score),[29],-0.28
same,glycan array binding signal (z-score),[30],-0.25
same,glycan array binding signal (z-score),[31],-0.176
same,glycan array binding signal (z-score),[32],-0.251
same,glycan array binding signal (z-score),[33],-0.261
same,glycan array binding signal (z-score),[34],-0.156
same,glycan array binding signal (z-score),[35],-0.151
same,glycan array binding signal (z-score),[36],-0.238
same,glycan array binding signal (z-score),[37],-0.269
same,glycan array binding signal (z-score),[38],-0.29
